SMILES strings stand for the structures. Among all 310,000 compounds or so, about 2,200 (0.71%) showed an effect of 50% or more. Effects have a minus sign here. Some of the results follow.

The target in this experiment is human ether-à-go-go-related gene (hERG) potassium channel (human, UniProt Q12809). As to the kind of experiment: primary screen, population patch clamp on CHO cells stably expressing hERG.
human ether-à-go-go-related gene (hERG) potassium channel, sequence (Q12809 whole entry, looked up): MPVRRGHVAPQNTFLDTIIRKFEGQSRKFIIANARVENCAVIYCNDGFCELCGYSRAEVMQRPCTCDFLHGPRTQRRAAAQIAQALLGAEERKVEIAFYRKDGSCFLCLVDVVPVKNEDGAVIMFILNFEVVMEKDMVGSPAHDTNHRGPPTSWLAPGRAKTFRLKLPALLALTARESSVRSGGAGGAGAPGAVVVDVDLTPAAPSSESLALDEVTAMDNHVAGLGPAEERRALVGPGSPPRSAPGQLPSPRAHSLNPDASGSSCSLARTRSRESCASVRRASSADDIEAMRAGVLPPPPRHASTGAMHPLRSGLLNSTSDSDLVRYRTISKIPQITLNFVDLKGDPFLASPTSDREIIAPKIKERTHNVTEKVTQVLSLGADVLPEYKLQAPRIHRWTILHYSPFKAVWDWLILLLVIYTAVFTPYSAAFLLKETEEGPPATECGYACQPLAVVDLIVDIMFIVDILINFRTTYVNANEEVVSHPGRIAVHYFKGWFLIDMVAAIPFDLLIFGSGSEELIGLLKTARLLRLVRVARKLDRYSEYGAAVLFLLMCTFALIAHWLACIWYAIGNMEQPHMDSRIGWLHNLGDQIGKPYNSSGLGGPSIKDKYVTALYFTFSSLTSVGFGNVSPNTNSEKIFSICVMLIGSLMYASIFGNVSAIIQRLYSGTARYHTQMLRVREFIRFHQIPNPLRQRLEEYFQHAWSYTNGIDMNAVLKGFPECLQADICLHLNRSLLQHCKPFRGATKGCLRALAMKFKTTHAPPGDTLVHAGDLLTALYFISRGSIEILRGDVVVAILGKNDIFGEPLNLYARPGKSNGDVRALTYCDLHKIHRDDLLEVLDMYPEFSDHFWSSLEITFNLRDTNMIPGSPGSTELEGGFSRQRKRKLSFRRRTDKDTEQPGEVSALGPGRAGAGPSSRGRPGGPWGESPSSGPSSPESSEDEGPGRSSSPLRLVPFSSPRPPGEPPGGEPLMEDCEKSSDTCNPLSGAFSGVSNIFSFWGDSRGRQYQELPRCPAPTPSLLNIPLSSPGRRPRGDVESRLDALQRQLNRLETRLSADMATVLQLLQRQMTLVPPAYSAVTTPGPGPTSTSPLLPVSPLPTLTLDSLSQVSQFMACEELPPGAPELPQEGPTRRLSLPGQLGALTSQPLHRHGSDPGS
For `O=C(COC(=O)/C=C/c1ccccc1)NC1CCCCC1`, the “hERG current change (%, negative = inhibition) at 1uM” value is reported as 6.97%. To `O=C(NC1CC1)C1CCN(C2CCN(C(=O)Cc3ccc4c(c3)OCO4)CC2)CC1` belongs 11.6%; to `Cc1cc(C)n(CCNC(=O)C2CCC(=O)N(CCc3cccc(F)c3)C2)n1` (stereo not shown), 14.5%; to `Cc1ccc(C)c2[nH]c(=O)c(CCNC(=O)c3cccs3)cc12`, 7.48%. As for `Cc1nnc(SCC2=C(C(=O)O)N3C(=O)C(NC(=O)Cn4nc(C(F)F)cc4C)C3SC2)s1` (stereo not shown), the figure is 4.52%; as for `O=C(COC(=O)C12CC3CC(CC(Br)(C3)C1)C2)Nc1cccnc1Cl`, 4.7%.

For the compound `CCC1(C)Cc2nc(Cl)c(C#N)cc2CO1` (stereo not shown), the “hERG current change (%, negative = inhibition) at 1uM” value is reported as 8.18%.

As for `CC1CCCCN1C(=O)CNCc1ccc(F)cc1.O=C(O)C(=O)O` (stereo not shown), the “hERG current change (%, negative = inhibition) at 1uM” value was 8.26%. As for `Cc1cccc(NC(=S)NCCC(c2ccccc2)c2ccccc2)c1`, the figure is 7.6%. As for `CCOC(=O)c1sc(NC(=O)c2ccc3ncsc3c2)nc1C`, the figure is 14.4%; as for `COc1cccc(N2CC(C(=O)N3CCC4(CC3)CC(=O)c3ccccc3O4)CC2=O)c1` (stereo not shown), 3.79%; as for `CN(CCOc1ccc(Cl)cc1)C(=O)c1cc(-c2ccco2)nc2ccccc12`, -0.276%. As for `F[B-](F)(F)F.OCC[NH+]=c1cc(-c2ccccc2)oc2ccc(Cl)cc12`, the figure is -71.1%; as for `Cn1c(SCC(=O)N2CCN(c3ccccc3)CC2)nnc1-c1c[nH]c2ccccc12`, 1.89%; as for `CC(C)c1ccc(NC(=S)NCc2cccs2)cc1`, -3.09%. Regarding `c1ccc(Oc2nc(NCc3ccco3)nc(NCc3ccco3)n2)cc1`, the “hERG current change (%, negative = inhibition) at 1uM” value was found to be 14.6%. As for `CC(=O)N1CCc2cc(C(=O)CN3CCC(C)CC3)ccc21`, the figure is 6.75%; as for `CCOC(=O)N1CCC(NC(=O)c2cc3c(-c4cccc(OC)c4)nn(C)c3s2)CC1`, -3.27%. As for `CCCCCC(=O)NNC(=S)NC(=O)c1ccccc1[N+](=O)[O-]`, the figure is 13.9%. As for `CCCN1CCC(N(C)CCc2ccc(OC)c(OC)c2)CC1`, the figure is 6.4%; as for `N#CCC(=O)N/N=C/c1cn(Cc2ccc(Cl)cc2Cl)c2ccccc12`, 14.9%; as for `COc1cccc2cc(C(=O)Nc3ccccc3Cl)/c(=N/NS(=O)(=O)c3ccccc3)oc12`, 12.2%. `Cc1ccc2c(C)c(C(=O)N3CCN(c4cnccn4)CC3)oc2c1C`: the “hERG current change (%, negative = inhibition) at 1uM” value is given as 9.49%. As for `CC(Sc1nnc2ccccn12)C(=O)Nc1ccc2c(c1)OCCO2` (stereo not shown), the figure is 6.29%; as for `O=C(CN(Cc1ccco1)C(=O)c1ccccc1)Nc1ccc(Cl)c(Cl)c1`, -1.04%. To `O=C(CCCN1C(=O)c2cccc3cccc(c23)C1=O)NCc1ccco1` belongs -4.08%; to `N#CC1=C(N)Oc2c(c(=O)sc3ccccc23)C1c1ccncc1` (stereo not shown), 14.7%; to `Cc1ccc(NC(=O)c2cc(-c3cccs3)on2)cc1`, 13.1%. To `Cc1ccc(NC(=S)NCc2ccco2)c(C)c1` belongs 6.13%. In the case of `COC(=O)[C@@]12CCCN1[C@H](c1ccc(-c3ccc(C(C)=O)cc3)c(OC)c1)[C@H]1C(=O)N(C)C(=O)[C@H]12.O=C(O)C(F)(F)F`, the “hERG current change (%, negative = inhibition) at 1uM” value amounted to 3.42%.

Regarding `C=CCC1(CC=C)CCCN1Cc1nc(COc2ccccc2)no1`, the “hERG current change (%, negative = inhibition) at 1uM” value was found to be 11.4%.

In the case of `O=C(CSc1nnc(Nc2ccccc2F)s1)NC1CCCC1`, the “hERG current change (%, negative = inhibition) at 1uM” value is 12.7%.

Turning to `Cc1cccc(-n2c(CNC(=O)c3ccc(S(=O)(=O)N4CCCCC4)cc3)n[nH]c2=S)c1`, the “hERG current change (%, negative = inhibition) at 1uM” value was 14%.

Consider `S=c1[nH]nc(-c2cccs2)n1/N=C/c1c(Cl)cccc1Cl`, for which the “hERG current change (%, negative = inhibition) at 1uM” value was 15.1%.

For the compound `COc1cccc(N2C(=O)c3ccncc3C2=O)c1`, the “hERG current change (%, negative = inhibition) at 1uM” value turned out to be 15.7%.

Consider `O=C1CC(NCCc2ccccc2)C(=O)N1CCc1ccccc1` (stereo not shown), for which the “hERG current change (%, negative = inhibition) at 1uM” value came out at 9.35%. To `CCCCc1nc2sc3c(c2c(=O)[nH]1)CC(C)(C)OC3` belongs 9.9%.

Regarding `COc1ccc(/C(C)=N/NC(=O)c2ccccc2OCc2ccccc2)c(OC)c1`, the “hERG current change (%, negative = inhibition) at 1uM” value was 12.1%. To `CCOC(=O)C1=NNC(C(=O)c2ccccc2)C1c1ccc(C)cc1` (stereo not shown) belongs 10.8%; to `Cc1c(N=C/C=C2\N(C)c3ccccc3C2(C)C)c(=O)n(-c2ccccc2)n1C`, -15.5%; to `Cc1ccccc1OCC(=O)Nc1sc(C(=O)Nc2cccc(C)c2C)c(C)c1C#N`, 7.86%. To `COc1ccc(-c2csc(Nc3cccc(C)n3)n2)cc1` belongs 13.3%; to `COc1cc(NC(=O)COc2c(C)cc(C)cc2[N+](=O)[O-])c(OC)cc1Cl`, 4.79%. As for `COc1cc(OC)c(S(=O)(=O)Nc2ccccc2C(=O)O)cc1S(=O)(=O)Nc1ccccc1C(=O)O`, the figure is 10.9%.

In the case of `O=C(O)Cc1ccc(NC(=O)Nc2ccc(Br)cc2)cc1`, the “hERG current change (%, negative = inhibition) at 1uM” value worked out at 14.1%. To `COc1cc2c(cc1OC)C(C)N(C(=O)c1cc3c(C)cc(C)cc3[nH]1)CC2` (stereo not shown) belongs 12%; to `CCC(=O)N1CCN(c2ccc(NC(=O)c3ccco3)cc2)CC1`, 9.45%; to `O=c1c(Cc2ccccc2O)c(O)nc2n1CCCS2`, 12.2%.

For `CN(C)CCCN(C(=O)CCc1ccccc1)c1nc2ccc(F)cc2s1.Cl`, the “hERG current change (%, negative = inhibition) at 1uM” value was -24.8%.

In the case of `CCSc1ncc(Cl)c(C(=O)Nc2ccc(S(=O)(=O)Nc3onc(C)c3C)cc2)n1`, the “hERG current change (%, negative = inhibition) at 1uM” value was 8.19%.

For the compound `COc1ccccc1CN1C(=O)c2ccccc2C1C(=O)NC1CCC(C)CC1` (stereo not shown), the “hERG current change (%, negative = inhibition) at 1uM” value is 9.2%. As to `CCOC(=O)C1=C(COC(=O)c2ccco2)NC(=O)NC1CC` (stereo not shown), the “hERG current change (%, negative = inhibition) at 1uM” value came out at 9.44%. As for `O=C(Nc1ccn(-c2ccccc2)n1)c1ccc(Cl)cc1`, the figure is 14.3%; as for `Cc1cccc(CC(=O)NC2CCCCCC2)c1`, 12.1%. As for `O=C(/C=C/c1cccs1)N1CCN(c2ccccc2F)CC1`, the figure is 3.41%; as for `Cc1ccnc(N2C(=O)c3ccccc3C2Nc2cccc(C)c2C)c1` (stereo not shown), 12.2%. To `C=CCNC(=O)C12CC3(C)CC(C)(CC(C)(C3)C1)C2` belongs 6.41%; to `Cn1c(=O)n(CC(N)=O)c(=O)c2c1nc1n2CCCN1Cc1ccccc1`, 11.6%; to `C=CCNc1nnnc2c1sc1nc(N3CCOCC3)c3c(c12)CCCC3`, 6.31%. Regarding `COc1ccc(C2C(C#N)=C(N)OC3=C2C(=O)CCC3)cc1Cn1cc([N+](=O)[O-])cn1` (stereo not shown), the “hERG current change (%, negative = inhibition) at 1uM” value stood at 7.6%. With `CC(C)(C)c1cc(NC(=O)Nc2ccc(Cl)cc2Cl)no1`, the “hERG current change (%, negative = inhibition) at 1uM” value turned out to be 15.1%. To `Cc1cc(C)c(C#N)c(SCc2nc3ccccc3c(=O)[nH]2)n1` belongs 12.7%. To `CCOc1ccc(CC(C(=O)NN)C(=O)NN)cc1CN(C)C` belongs 10.4%. For the compound `Cc1cc(NC(=O)COC(=O)c2n[nH]c3ccccc23)no1`, the “hERG current change (%, negative = inhibition) at 1uM” value is 14.4%.

Regarding `CCN1C(=O)/C(=C\N(C(C)=O)c2ccccc2)OC1=S`, the “hERG current change (%, negative = inhibition) at 1uM” value amounted to 9.47%. Regarding `Cc1cc(-c2ccc(C)c(S(=O)(=O)NCc3cccc(Br)c3)c2)on1`, the “hERG current change (%, negative = inhibition) at 1uM” value is given as -0.583%.

Turning to `COC(=O)c1ccccc1Sc1c(/C=N/OCc2ccc(Cl)cc2)c(C(F)(F)F)nn1C`, the “hERG current change (%, negative = inhibition) at 1uM” value was determined as 8.8%. As for `O=C(O)CSCC(=O)N1N=C2/C(=C/c3ccccc3)CCCC2C1c1ccccc1` (stereo not shown), the figure is 17.3%; as for `CCC(C)c1ccccc1NC(=S)NC(=O)c1ccco1` (stereo not shown), 2.7%; as for `O=C(O)/C=C/C(=O)Nc1ccc(OC(F)(F)Cl)cc1`, 9.4%. As for `CC1(c2ccc(OC(F)F)cc2)NC(=O)N(CC(=O)Nc2ccc3[nH]c(=O)[nH]c3c2)C1=O` (stereo not shown), the figure is 16.3%; as for `O=[N+]([O-])c1cc(/C=N/Nc2nc3ccccc3[nH]2)c(O)cc1O`, 14.2%. To `Cc1ccc(CN(C)C(=O)CN2C(=O)NC(c3ccccc3)(c3ccccc3)C2=O)c(C)c1` belongs 2.39%. On to `COC(=O)c1cc(=O)[nH]c(SCc2cccc(C)c2)n1`, for which the “hERG current change (%, negative = inhibition) at 1uM” value is on record as 16%.

As for `Cc1nc(NC(=O)CSc2nnnn2Cc2ccccc2)sc1C`, the “hERG current change (%, negative = inhibition) at 1uM” value is given as 9.78%. As for `O=C(NNC1=NCCC1)c1cccc(S(=O)(=O)N2CCCC2)c1`, the figure is 19.3%; as for `COc1cccc(C(C(=O)NCc2ccco2)N(C(=O)Cn2nnc3ccccc32)C2CC2)c1OC` (stereo not shown), -4.4%; as for `O=C(CSc1nc2ccccc2o1)Nc1ccccc1`, -0.112%. In the case of `COc1ccc(/C=C2\SC(N)=NC2=O)cc1Cl`, the “hERG current change (%, negative = inhibition) at 1uM” value worked out at 13.2%. To `CC(=O)/C(N)=N/Nc1cccc(Cl)c1` belongs 14.4%; to `Cc1cc(=O)c2n(Cc3ccccc3Cl)nc[n+]2[nH]1.[Cl-]`, -1.53%; to `COc1cc(OC)cc(C(=O)NC(c2ccccc2)c2ccccc2)c1`, 13.9%.

`COc1ccc(C(=O)Nc2nc(-c3cccs3)cs2)cc1`: the “hERG current change (%, negative = inhibition) at 1uM” value was -0.646%. As for `Cc1ccc(C(=O)n2cnnc2N)cc1`, the figure is 3.04%; as for `O=C(NC(=S)Nc1ccccc1N1CCCCC1)c1ccco1`, -3.12%; as for `O=C(CCNC(=O)c1ccc([N+](=O)[O-])cc1)Nc1ccccc1N1CCCCC1`, -7.61%.

With `CN(CCCNC(=O)C1CCC(=O)N1Cc1ccccc1Cl)c1ccccc1` (stereo not shown), the “hERG current change (%, negative = inhibition) at 1uM” value stood at 19.2%. As for `CC(C)C/C(=N/O)c1cn(C)c2ccccc12`, the “hERG current change (%, negative = inhibition) at 1uM” value is given as 13.3%.
